The text below walks through data of PubChem BioAssay AID1645887 (National Center for Advancing Translational Sciences (NCATS), 2021).

The structures appear in SMILES notation. Several values for one entry are separate records, joined by “and”; a condition that tells them apart may be missing. Equal values may be shown once. The whole screen tested about 16,000 compounds, of which about 40 (0.2%) were called active. About 1% were inconclusive and are not listed. Calls come from the whole dose curve; as a rule, active = well fitted activation curve with a large enough effect; inconclusive = small, poorly fitted or top-dose-only effect, or another doubt; inactive = no such curve, though single readings can be large or run the other way. The list shows a part of the results.
% is set by controls: 0 for no effect and ±100 for the full control effect; potency is the fitted concentration of half-maximal effect.

Chain of UniProt Q8WZA2 (Q8WZA2 whole entry, looked up): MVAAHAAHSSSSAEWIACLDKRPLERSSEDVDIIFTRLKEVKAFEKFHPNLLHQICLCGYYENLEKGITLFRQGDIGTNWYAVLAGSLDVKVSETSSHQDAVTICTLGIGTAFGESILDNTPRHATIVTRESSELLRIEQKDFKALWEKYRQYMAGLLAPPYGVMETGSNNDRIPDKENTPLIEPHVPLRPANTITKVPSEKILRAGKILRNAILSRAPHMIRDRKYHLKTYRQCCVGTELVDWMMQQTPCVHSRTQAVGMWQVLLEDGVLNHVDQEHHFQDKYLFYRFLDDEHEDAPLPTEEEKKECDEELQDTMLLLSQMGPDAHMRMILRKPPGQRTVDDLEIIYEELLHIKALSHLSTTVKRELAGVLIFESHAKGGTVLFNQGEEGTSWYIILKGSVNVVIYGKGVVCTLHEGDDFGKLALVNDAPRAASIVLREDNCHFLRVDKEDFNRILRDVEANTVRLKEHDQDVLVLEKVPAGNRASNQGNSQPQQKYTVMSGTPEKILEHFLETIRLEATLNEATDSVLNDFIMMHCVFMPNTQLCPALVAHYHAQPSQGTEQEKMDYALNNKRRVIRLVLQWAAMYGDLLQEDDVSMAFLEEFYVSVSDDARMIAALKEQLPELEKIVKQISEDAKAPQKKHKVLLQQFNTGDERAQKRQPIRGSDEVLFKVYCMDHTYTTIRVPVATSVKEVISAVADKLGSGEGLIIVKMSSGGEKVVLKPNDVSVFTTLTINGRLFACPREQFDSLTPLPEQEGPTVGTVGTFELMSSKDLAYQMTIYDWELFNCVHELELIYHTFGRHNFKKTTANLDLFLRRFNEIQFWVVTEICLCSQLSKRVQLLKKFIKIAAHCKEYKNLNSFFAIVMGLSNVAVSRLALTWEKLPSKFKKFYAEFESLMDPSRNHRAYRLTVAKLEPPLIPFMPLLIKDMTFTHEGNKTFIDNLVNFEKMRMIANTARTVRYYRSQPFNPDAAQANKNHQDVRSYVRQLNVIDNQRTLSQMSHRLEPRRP

The target in this experiment is Rap guanine nucleotide exchange factor 4 (Homo sapiens) (UniProt Q8WZA2). The experiment in a line: Validation qHTS for agonist of cAMP-regulated guanine nucleotide exchange factor 4 (EPAC2).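 For activation: exchange makes BODIPY-GDP fluorescence drop when released from Rap1B; series mostly up to about 150 µM.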 Particulars: EPAC2 Rap1B BODIPY-GDP exchange, fluorescence; activation: hits give high values. The method in brief:
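Fluorescent exchange assay: 100 nM EPAC2 with 250 nM RAP1B-BODIPY-GDP and 50 uM GDP; compound added, 5 min at room temperature, then read (ex 480/em 540 nm) every 5 min for 30 min. Normalized to 6.5 mM cAMP agonist control.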
A general note: qHTS replaces the single test concentration by a dilution series.
Consider `CC1(C)CO[C@H](CC(=O)O)CN1`, for which the activation is inactive: -2.59%. Still for that read-out and setting: then `COc1cccc(-c2nccc(NCc3cccs3)n2)c1`, with inactive: -11.5%; and `Cn1cnc2c(NCc3ccccc3)nc(NCCO)nc21`, with inactive: 4.72% [middle of 4 runs]; and `O=C(/C=C/c1ccccc1)c1ccc(O[C@H]2OC(CO)C(O)C(O)C2O)cc1O` (stereo partly specified), with inactive: -0.883%. The same measure, in the same setting: then `CC(=O)N1CCC[C@@]2(CCN(c3ccncc3)C2)C1`, with inactive: -12.8%; and `CC(C)NC(=O)N1CC[C@@]2(CCCN(S(C)(=O)=O)C2)C1`, with inactive: -10.6%. The same measure, in the same setting: to `CC1(C)S[C@@H]2[C@H](NC(=O)[C@H](N)c3ccc(O)cc3)C(=O)N2[C@H]1C(=O)O` belongs inactive: 11.5% and inactive: -15.2%. As to `CCOC(=O)C1=C[C@@]2(CC)CCCN3CCc4c(n1c1ccccc41)C32` (stereo partly specified), the activation is inactive: -1.12%. Still for that read-out and setting: then `CC(C)C(NS(C)(=O)=O)c1nnc2n1CCN(Cc1cccc3ncccc13)CC2` (stereo unspecified), with inactive: -12.7%. The same measure, in the same setting: then `CC(C)NC(=O)N1CCC2(CC1)CCN(C(=O)c1ccco1)CC2`, with inactive: -9.04%; and `O=C(c1cc(C(F)(F)F)cc(C(F)(F)F)c1)N1CCC2(CC1)CN(c1ccccn1)C2`, with inactive: -41.2%; and `COc1cccc2c1C(=O)c1c(O)c3c(c(O)c1C2=O)C[C@@](O)(C(=O)CO)C[C@@H]3O[C@H]1C[C@H](N)[C@H](O)[C@H](C)O1`, with inactive: -17.2%.

As to `Cc1ncc2c(c1CNC(=O)CN1CCCC1)CCN(C(=O)c1ccc(F)cc1F)C2`, the activation is inactive: -2.16%. The same measure, in the same setting: then `C[C@H]1O[C@H](O[C@H]2[C@H](O)[C@@H](O)[C@@H](O[C@H]3[C@H](O)[C@@H](O)[C@H](O)O[C@@H]3CO)O[C@@H]2CO)[C@H](O)[C@@H](O)[C@@H]1N[C@H]1C=C(CO)[C@@H](O)[C@H](O)[C@H]1O`, with inactive: -7.09%; and `Cc1cc2c(cc1S(N)(=O)=O)S(=O)(=O)CCC2`, with inactive: -84.3%; and `O=S1(=O)[C@H]2C[C@@H]3C=C[C@@]2(CN1Cc1cccc(Cl)c1)O3`, with inactive: -17.2%. `COc1ccc(C(=O)N2CCC[C@@]3(CCN(c4cccc(-c5ccccc5)c4)C3)C2)cc1`: the activation is inactive: 3.34%. Still for that read-out and setting: then `CSc1nc(C(=O)NCc2nc(-c3cccc(NC(=O)c4ccccn4)c3)oc2C)cs1`, with inactive: -22.1%; and `CN(C)c1ccc(/C=C2\C(=O)/C(=C\c3ccc(N(C)C)cc3)c3ccccc32)cc1`, with inactive: -7.68%; and `COc1ccccc1CNc1ccnc(-c2c(C)noc2C)n1`, with inactive: 5.45%. As to `CN1CCc2cc(O)c(O)cc2C(c2ccccc2)C1` (stereo unspecified), the activation is inactive: -27.2%. For `COC(=O)[C@@H](c1ccccc1Cl)N1CCc2sccc2C1`, the activation was inactive: 3.16%.

In the case of `CC(=O)OC1C=C[C@]2(C)C(CC(OC(C)=O)[C@@]3(C)C4=CC(=O)OC(c5ccoc5)[C@]4(C)CCC23)C1(C)C` (stereo partly specified), the activation was inactive: 9.76%. Same read-out and setting: to `CCNc1ncc2ncc(=O)n(C3CC3)c2n1` belongs inactive: -7.32%; to `CC(=O)SC1CC2=CC(=O)CC[C@@]2(C)C2CC[C@@]3(C)[C@@H](CC[C@@]34CCC(=O)O4)C12` (stereo partly specified), inactive: -13%; to `Nc1nc2c(ncn2[C@@H]2O[C@H](CO)[C@@H](O)[C@H]2O)c(=O)[nH]1`, inactive: -1.97%.

Take `CCn1ccnc1C[C@@H]1COc2ccccc2O1`: the activation was inactive: 5.97%. On the same count and under the same terms, then `CN(C)c1ccnc(-c2ccccc2C(F)(F)F)n1`, with inactive: -13.9%. Still for that read-out and setting: to `NCCNCCNCCNCCN` belongs inactive: 3.31%. For the molecule `CCOC(=O)N1CCN(Cc2ccc3c(c2)CN(C(=O)c2sc(C)nc2C)CCO3)CC1`, the activation is inactive: -14.2%. On the same count and under the same terms, to `COc1ccccc1CNc1ncncc1-c1ccccc1C` belongs inactive: -8.71%; to `Cc1ccccc1-c1cncnc1NCc1cccs1`, inactive: -29.1%. Still for that read-out and setting: then `CCCCC(=O)O[C@@]1(C(=O)CO)C(C)CC2C3CCC4=CC(=O)C=C[C@@]4(C)[C@]3(F)C(O)C[C@]21C` (stereo partly specified), with inactive: -22.7%; and `COc1cccc(Cn2c(=O)c(-c3ccc(Cl)cc3)nc3cnc(OC)nc32)c1`, with inactive: 1.58%. Same read-out and setting: to `CNc1ncncc1-c1ccc(C(=O)N(C)C)cc1` belongs inactive: -4.79%.

For `CCNc1ncc2nc(-c3cccc(C#N)c3)c(=O)n(Cc3cccc(OC)c3)c2n1`, the activation was inactive: 3.97%. The same measure, in the same setting: then `CN[C@@H]1[C@@H](O)[C@@H](O[C@@H]2[C@@H](O)[C@H](OC3OC(CN)=CCC3N)[C@@H](N)C[C@H]2N)OC[C@]1(C)O` (stereo partly specified), with inactive: 6.15%; and `Cc1ncc2c(c1CNC(=O)c1ccc3c(c1)OCO3)CCN(C(=O)c1ccoc1)C2`, with inactive: -3.86%. Same read-out and setting: to `COc1c(-c2coc3cc4c(cc3c2=O)CC(OC(C)=O)C(C)(C)O4)ccc2c1C=CC(C)(C)O2` (stereo unspecified) belongs inactive: -16.3%.

In the case of `NC(=O)c1cc[n+](CC2=C(C(=O)O)N3C(=O)[C@@H](NC(=O)[C@@H](c4ccccc4)S(=O)(=O)[O-])[C@H]3SC2)cc1`, the activation is inactive: 0.636%. Still for that read-out and setting: to `CC(C)c1ccc2oc3nc(N)c(C(=O)O)cc3c(=O)c2c1` belongs inactive: 25.1%; to `N/C(=N\N=C\c1ccc(Cl)cc1)N/N=C/c1ccc(Cl)cc1`, inactive: 6.79%; to `COc1ccc(NC(=O)N2CC[C@@]3(CCCN(C(=O)c4csnn4)C3)C2)cc1`, inactive: -17.3%.

For the molecule `Cc1cnc(CNc2ncncc2-c2ccccc2C(F)(F)F)cn1`, the activation is inactive: -17.8%. The same measure, in the same setting: to `Cc1cc(-c2ccnc(-n3ncc(C(=O)N4CCCCC4c4cccnc4)c3C3CC3)n2)c(C)s1` (stereo unspecified) belongs inactive: 2.18%; to `COc1ccc(-c2nc3cnc(Nc4cccc(OC)c4)nc3n(C[C@H]3CCCO3)c2=O)cc1`, inactive: -2.96%; to `CCNc1ncc2nc(-c3cn(C)c4ccccc34)c(=O)n(Cc3cccc(OC)c3)c2n1`, inactive: -18%. Consider `Cc1ncc2c(c1CNC(=O)/C=C/c1cccs1)CCN(C(=O)c1ccc3c(c1)OCCO3)C2`, for which the activation was inactive: -5.28%. On the same count and under the same terms, to `CCN1CCCC1CNC(=O)c1cnn(-c2nccc(-c3cccs3)n2)c1C1CC1` (stereo unspecified) belongs inactive: -18.3%; to `O=c1c(-c2ccc(F)cc2)nc2cncnc2n1Cc1ccccc1`, inactive: -6.68%. In the case of `O=C(NCCN1Cc2ccccc2OC(c2ccsc2)C1)c1ccc2[nH]ccc2c1` (stereo unspecified), the activation was inactive: 7.93%. `CCCCCc1ccc(-c2cn(CC3CCCCC3)nn2)cc1`: the activation was inactive: -17.7%. Still for that read-out and setting: then `CCO[C@@H]1O[C@H](C(COCc2ccccc2)OCc2ccccc2)[C@H](OCc2ccccc2)[C@H]1O` (stereo partly specified), with inactive: -43.2%.

Regarding `NC(C(=O)N[C@@H]1C(=O)N2C(C(=O)O)=C(Cl)CS[C@H]12)c1ccccc1` (stereo partly specified), the activation is inactive: -50.7%. Regarding `CCOC(=O)c1c(N)sc2c1CCN(Cc1ccccc1)C2`, the activation was inactive: -24.9%.

With `CC(=O)Oc1ccc2c(c1)CC[C@@H]1[C@@H]2CC[C@]2(C)[C@@H](O)CC[C@@H]12`, the Potency is active: 44.7 µM. Regarding `COc1ccc(C(Cl)=C(c2ccc(OC)cc2)c2ccc(OC)cc2)cc1`, the activation was inactive: -4.52% and inactive: -1.99%. With `O=c1[nH]c2cc(C(F)(F)F)c(N3CCOCC3)cc2n(CP(=O)(O)O)c1=O`, the activation was inactive: -10.1%. The same measure, in the same setting: to `Cc1oncc1C(=O)Nc1ccc(C(F)(F)F)cc1` belongs inactive: -37.1% and inactive: -36.7% and inactive: -49.9%; to `Nc1ccn(C2CO[C@H](CO)O2)c(=O)n1` (stereo partly specified), inactive: -25.3%; to `CN(C)c1ccc(C=O)cc1[N+](=O)[O-]`, inactive: -21.6%. The same measure, in the same setting: to `COc1ccc(C(=O)N2CCC[C@@]3(CCN(Cc4cc(C(F)(F)F)cc(C(F)(F)F)c4)C3)C2)cc1` belongs inactive: -26.8%; to `CC1CC(OC(=O)C(O)c2ccccc2)CC(C)(C)C1` (stereo unspecified), inactive: -39.2%; to `OC1(c2cccnc2)CCN(Cc2ccc3c(c2)CN(Cc2ccc4nsnc4c2)CCO3)CC1`, inactive: -21%. Same read-out and setting: then `COCC(=O)N1CCC2(CCCN(c3ccccc3)C2)CC1`, with inactive: -8.78%; and `Cc1ncc2c(c1CNS(=O)(=O)N(C)C)CCN(C(=O)c1ccc(F)cc1Cl)C2`, with inactive: 5.94%.

In the case of `Cc1nc(-c2coc3c(O)c(O)ccc3c2=O)cs1`, the activation is inactive: -15.8%. Still for that read-out and setting: to `O=S1(=O)CCOC[C@H](CC2CCCCC2)N1Cc1cccc(C(F)(F)F)c1` belongs inactive: -27.5%; to `CS(=O)(=O)N1CCC[C@@]2(CCN(C(=O)Nc3cccc(F)c3)C2)C1`, inactive: -10.7%; to `CC(CCc1ccccc1)NCC(O)c1ccc(O)c(C(N)=O)c1` (stereo unspecified), inactive: -22.6% and inactive: -8.7% and inactive: -24%. Still for that read-out and setting: then `O=C(O)c1ccccc1[O-].O=C(O)c1ccccc1[O-].[Zn+2]`, with inactive: -8.01%.

Take `COCCn1c(=O)c(CCc2ccccc2)nc2cnc(Oc3ccccc3)nc21`: the activation is inactive: -8.02%.

Turning to `CCOC(=O)[C@H](CCc1ccccc1)N[C@@H](C)C(=O)N1Cc2ccccc2C[C@H]1C(=O)O`, the activation was inactive: -14.8%. Same read-out and setting: to `CS(=O)(=O)N1CCC2(CC1)CN(c1ncccn1)C2` belongs inactive: -12.8%; to `Cc1cc2c(c(-c3ccc4nc(C)ccc4c3)c1)OC(CNC(=O)Cc1ccn(C)c1)C2` (stereo unspecified), inactive: 18.7%; to `Cc1cc(C)cc(NC(=O)C2CC23CCN(Cc2ccc4ncccc4c2)CC3)c1` (stereo unspecified), inactive: -1.56%. With `COCCn1c(=O)c(-c2cccc(C#N)c2)nc2cnc(OCc3ccccc3)nc21`, the activation is inactive: 10.5%. Same read-out and setting: then `CC1CC[C@@]2(OC1)OC1CC3C4CC[C@H]5CC(O)CC[C@@]5(C)C4CC[C@]3(C)C1C2C` (stereo partly specified), with inactive: -11.5%. The same measure, in the same setting: to `CCCCCCCCCCCCCC(=O)N[C@@H](C)[C@H](O)c1ccccc1` belongs inactive: 4%; to `Cc1cc(NC(=O)Nc2ccc(N(C)C)cc2)c2cc(F)cc(F)c2n1`, inactive: -12.4%. Still for that read-out and setting: to `Cc1onc(-c2c(Cl)cccc2Cl)c1C(=O)N[C@@H]1C(=O)N2[C@@H]1SC(C)(C)[C@@H]2C(=O)O` belongs inactive: -21%.
